# Measurements published in PMC12820563, “FoxP3 forms a head-to-head dimer in vivo and stabilizes its multimerization on adjacent microsatellites”.
# This is one part of the list.
# Biological target: T1, MBP-FoxP1dN (Mus musculus, UniProt P58462 326-579)
# T1 sequence: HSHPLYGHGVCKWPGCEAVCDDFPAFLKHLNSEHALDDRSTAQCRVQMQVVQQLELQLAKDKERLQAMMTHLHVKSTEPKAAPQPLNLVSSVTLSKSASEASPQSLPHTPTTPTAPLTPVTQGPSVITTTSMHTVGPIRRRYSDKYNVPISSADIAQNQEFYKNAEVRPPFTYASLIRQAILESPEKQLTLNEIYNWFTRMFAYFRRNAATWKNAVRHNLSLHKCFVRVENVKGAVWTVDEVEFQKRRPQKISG
# Test: PD-seq (MBP pull-down with sequencing); 20 mM Tris-HCl pH 7.5, 100 mM NaCl, 1.5 mM MgCl2, 0.4 uM protein, 0.1 uM dsDNA library, 30 min, room temperature, amylose pull-down; high values mean tight binding
# Details: protein: recombinant; tags: His6-MBP; chain copies: 2; dsDNA, one strand shown
# Summary of the method: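 Binding is the reads-per-million enrichment of pull-down relative to input, pooled across replicates. For this, 0.4 µM His6-MBP-tagged mouse FoxP3 or FoxP1 fragment lacking the N-terminus, made in E. coli, was incubated with 0.1 µM Klenow-filled double-stranded degenerate DNA library for 30 min at room temperature in Tris pH 7.5 buffer with NaCl and MgCl2. Complexes bound to amylose resin were washed three times before proteinase K released the DNA for PCR barcoding and Illumina sequencing.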
row,Sequence,binding signal
1,GATGATTGTTCTCCCAGCTGATGAATTGTTTTCGTCGAGTAAACAAATTTTCCTAATCTTTCTGTTCAAGCGCCATCTAC,2.02 RPM ratio (pull-down/input)
2,GATGATTGTTCTCCCAGCTGATGAATTTATTTCTTCGAGTAAACAAATTTTCCTAATCTTTCTGTTCAAGCGCCATCTAC,1.29 RPM ratio (pull-down/input)
3,GATGATTGTTCTCCCAGCTGATGAATTCTAAATGTCGAGTAAACAAATTTTCCTAATCTTTCTGTTCAAGCGCCATCTAC,0.99 RPM ratio (pull-down/input)
4,GATGATTGTTCTCCCAGCTGATGAATTTGAGATATCGAGTAAACAAATTTTCCTAATCTTTCTGTTCAAGCGCCATCTAC,0.884 RPM ratio (pull-down/input)
5,GATGATTGTTCTCCCAGCTGATGAATTCACCTTGTCGAGTAAACAAATTTTCCTAATCTTTCTGTTCAAGCGCCATCTAC,0.886 RPM ratio (pull-down/input)
6,GATGATTGTTCTCCCAGCTGATGAATTCACTCACTCGAGTAAACAAATTTTCCTAATCTTTCTGTTCAAGCGCCATCTAC,0.88 RPM ratio (pull-down/input)
7,GATGATTGTTCTCCCAGCTGATGAATTTCATAAGTCGAGTAAACAAATTTTCCTAATCTTTCTGTTCAAGCGCCATCTAC,0.837 RPM ratio (pull-down/input)
8,GATGATTGTTCTCCCAGCTGATGAATTGCTGCATTCGAGTAAACAAATTTTCCTAATCTTTCTGTTCAAGCGCCATCTAC,1.32 RPM ratio (pull-down/input)
9,GATGATTGTTCTCCCAGCTGATGAATTGTAAGAGTCGAGTAAACAAATTTTCCTAATCTTTCTGTTCAAGCGCCATCTAC,0.892 RPM ratio (pull-down/input)
10,GATGATTGTTCTCCCAGCTGATGAATTAACTTTGTCGAGTAAACAAATTTTCCTAATCTTTCTGTTCAAGCGCCATCTAC,0.902 RPM ratio (pull-down/input)
11,GATGATTGTTCTCCCAGCTGATGAATTCTGGCGGTCGAGTAAACAAATTTTCCTAATCTTTCTGTTCAAGCGCCATCTAC,0.755 RPM ratio (pull-down/input)
12,GATGATTGTTCTCCCAGCTGATGAATTAGTGGCTTCGAGTAAACAAATTTTCCTAATCTTTCTGTTCAAGCGCCATCTAC,0.967 RPM ratio (pull-down/input)
13,GATGATTGTTCTCCCAGCTGATGAATTTCCCTTTTCGAGTAAACAAATTTTCCTAATCTTTCTGTTCAAGCGCCATCTAC,0.942 RPM ratio (pull-down/input)
14,GATGATTGTTCTCCCAGCTGATGAATTGACCTCATCGAGTAAACAAATTTTCCTAATCTTTCTGTTCAAGCGCCATCTAC,0.954 RPM ratio (pull-down/input)
15,GATGATTGTTCTCCCAGCTGATGAATTCATCCACTCGAGTAAACAAATTTTCCTAATCTTTCTGTTCAAGCGCCATCTAC,0.832 RPM ratio (pull-down/input)
16,GATGATTGTTCTCCCAGCTGATGAATTGCAAAGTTCGAGTAAACAAATTTTCCTAATCTTTCTGTTCAAGCGCCATCTAC,1.3 RPM ratio (pull-down/input)
17,GATGATTGTTCTCCCAGCTGATGAATTGCCGCCATCGAGTAAACAAATTTTCCTAATCTTTCTGTTCAAGCGCCATCTAC,0.999 RPM ratio (pull-down/input)
18,GATGATTGTTCTCCCAGCTGATGAATTCCCCGTATCGAGTAAACAAATTTTCCTAATCTTTCTGTTCAAGCGCCATCTAC,0.89 RPM ratio (pull-down/input)
19,GATGATTGTTCTCCCAGCTGATGAATTTTTTCATTCGAGTAAACAAATTTTCCTAATCTTTCTGTTCAAGCGCCATCTAC,1.01 RPM ratio (pull-down/input)
20,GATGATTGTTCTCCCAGCTGATGAATTTTGACGTTCGAGTAAACAAATTTTCCTAATCTTTCTGTTCAAGCGCCATCTAC,1.01 RPM ratio (pull-down/input)
21,GATGATTGTTCTCCCAGCTGATGAATTATACGGGTCGAGTAAACAAATTTTCCTAATCTTTCTGTTCAAGCGCCATCTAC,0.858 RPM ratio (pull-down/input)

row,Sequence,binding signal
1,GATGATTGTTCTCCCAGCTGATGAATTGCTCCAGTCGAGTAAACAAATTTTCCTAATCTTTCTGTTCAAGCGCCATCTAC,0.965 RPM ratio (pull-down/input)
2,GATGATTGTTCTCCCAGCTGATGAATTACTAAACTCGAGTAAACAAATTTTCCTAATCTTTCTGTTCAAGCGCCATCTAC,1.18 RPM ratio (pull-down/input)
3,GATGATTGTTCTCCCAGCTGATGAATTACTGCTATCGAGTAAACAAATTTTCCTAATCTTTCTGTTCAAGCGCCATCTAC,1.09 RPM ratio (pull-down/input)
4,GATGATTGTTCTCCCAGCTGATGAATTTACTCTATCGAGTAAACAAATTTTCCTAATCTTTCTGTTCAAGCGCCATCTAC,1.28 RPM ratio (pull-down/input)
5,GATGATTGTTCTCCCAGCTGATGAATTTCCCTGTTCGAGTAAACAAATTTTCCTAATCTTTCTGTTCAAGCGCCATCTAC,0.806 RPM ratio (pull-down/input)
6,GATGATTGTTCTCCCAGCTGATGAATTTACTTTTTCGAGTAAACAAATTTTCCTAATCTTTCTGTTCAAGCGCCATCTAC,1.41 RPM ratio (pull-down/input)
7,GATGATTGTTCTCCCAGCTGATGAATTCGGTGGATCGAGTAAACAAATTTTCCTAATCTTTCTGTTCAAGCGCCATCTAC,0.906 RPM ratio (pull-down/input)
8,GATGATTGTTCTCCCAGCTGATGAATTTAACACTTCGAGTAAACAAATTTTCCTAATCTTTCTGTTCAAGCGCCATCTAC,0.926 RPM ratio (pull-down/input)
9,GATGATTGTTCTCCCAGCTGATGAATTGCCTTACTCGAGTAAACAAATTTTCCTAATCTTTCTGTTCAAGCGCCATCTAC,1.01 RPM ratio (pull-down/input)
10,GATGATTGTTCTCCCAGCTGATGAATTAGTTGTGTCGAGTAAACAAATTTTCCTAATCTTTCTGTTCAAGCGCCATCTAC,1.22 RPM ratio (pull-down/input)
11,GATGATTGTTCTCCCAGCTGATGAATTTTATTAGTCGAGTAAACAAATTTTCCTAATCTTTCTGTTCAAGCGCCATCTAC,1.28 RPM ratio (pull-down/input)
12,GATGATTGTTCTCCCAGCTGATGAATTGTGTCTATCGAGTAAACAAATTTTCCTAATCTTTCTGTTCAAGCGCCATCTAC,1.37 RPM ratio (pull-down/input)
13,GATGATTGTTCTCCCAGCTGATGAATTGATGGATTCGAGTAAACAAATTTTCCTAATCTTTCTGTTCAAGCGCCATCTAC,0.971 RPM ratio (pull-down/input)
14,GATGATTGTTCTCCCAGCTGATGAATTTCAAACGTCGAGTAAACAAATTTTCCTAATCTTTCTGTTCAAGCGCCATCTAC,0.804 RPM ratio (pull-down/input)
15,GATGATTGTTCTCCCAGCTGATGAATTGGTGATGTCGAGTAAACAAATTTTCCTAATCTTTCTGTTCAAGCGCCATCTAC,1.25 RPM ratio (pull-down/input)
16,GATGATTGTTCTCCCAGCTGATGAATTAGTTAAATCGAGTAAACAAATTTTCCTAATCTTTCTGTTCAAGCGCCATCTAC,1.03 RPM ratio (pull-down/input)
17,GATGATTGTTCTCCCAGCTGATGAATTTTAATTATCGAGTAAACAAATTTTCCTAATCTTTCTGTTCAAGCGCCATCTAC,1.47 RPM ratio (pull-down/input)
18,GATGATTGTTCTCCCAGCTGATGAATTCCTCGATTCGAGTAAACAAATTTTCCTAATCTTTCTGTTCAAGCGCCATCTAC,0.848 RPM ratio (pull-down/input)
19,GATGATTGTTCTCCCAGCTGATGAATTAATCCCGTCGAGTAAACAAATTTTCCTAATCTTTCTGTTCAAGCGCCATCTAC,0.837 RPM ratio (pull-down/input)
20,GATGATTGTTCTCCCAGCTGATGAATTTTAATAGTCGAGTAAACAAATTTTCCTAATCTTTCTGTTCAAGCGCCATCTAC,0.968 RPM ratio (pull-down/input)
21,GATGATTGTTCTCCCAGCTGATGAATTACAGAATTCGAGTAAACAAATTTTCCTAATCTTTCTGTTCAAGCGCCATCTAC,1.22 RPM ratio (pull-down/input)

row,Sequence,binding signal
1,GATGATTGTTCTCCCAGCTGATGAATTTCCCACATCGAGTAAACAAATTTTCCTAATCTTTCTGTTCAAGCGCCATCTAC,1.05 RPM ratio (pull-down/input)
2,GATGATTGTTCTCCCAGCTGATGAATTGTGCGTATCGAGTAAACAAATTTTCCTAATCTTTCTGTTCAAGCGCCATCTAC,1.22 RPM ratio (pull-down/input)
3,GATGATTGTTCTCCCAGCTGATGAATTAAAGCCGTCGAGTAAACAAATTTTCCTAATCTTTCTGTTCAAGCGCCATCTAC,0.934 RPM ratio (pull-down/input)
4,GATGATTGTTCTCCCAGCTGATGAATTAGTCGGTTCGAGTAAACAAATTTTCCTAATCTTTCTGTTCAAGCGCCATCTAC,0.902 RPM ratio (pull-down/input)
5,GATGATTGTTCTCCCAGCTGATGAATTGCGTGGATCGAGTAAACAAATTTTCCTAATCTTTCTGTTCAAGCGCCATCTAC,0.968 RPM ratio (pull-down/input)
6,GATGATTGTTCTCCCAGCTGATGAATTCAGCTGATCGAGTAAACAAATTTTCCTAATCTTTCTGTTCAAGCGCCATCTAC,0.862 RPM ratio (pull-down/input)
7,GATGATTGTTCTCCCAGCTGATGAATTGGCCGTCTCGAGTAAACAAATTTTCCTAATCTTTCTGTTCAAGCGCCATCTAC,0.741 RPM ratio (pull-down/input)
8,GATGATTGTTCTCCCAGCTGATGAATTATCTTCATCGAGTAAACAAATTTTCCTAATCTTTCTGTTCAAGCGCCATCTAC,1.09 RPM ratio (pull-down/input)
9,GATGATTGTTCTCCCAGCTGATGAATTGCAATGATCGAGTAAACAAATTTTCCTAATCTTTCTGTTCAAGCGCCATCTAC,1.2 RPM ratio (pull-down/input)
10,GATGATTGTTCTCCCAGCTGATGAATTGTGGGATTCGAGTAAACAAATTTTCCTAATCTTTCTGTTCAAGCGCCATCTAC,0.936 RPM ratio (pull-down/input)
11,GATGATTGTTCTCCCAGCTGATGAATTTTCTTGCTCGAGTAAACAAATTTTCCTAATCTTTCTGTTCAAGCGCCATCTAC,0.932 RPM ratio (pull-down/input)
12,GATGATTGTTCTCCCAGCTGATGAATTAACTGAGTCGAGTAAACAAATTTTCCTAATCTTTCTGTTCAAGCGCCATCTAC,0.877 RPM ratio (pull-down/input)
13,GATGATTGTTCTCCCAGCTGATGAATTAACGGCATCGAGTAAACAAATTTTCCTAATCTTTCTGTTCAAGCGCCATCTAC,1.05 RPM ratio (pull-down/input)
14,GATGATTGTTCTCCCAGCTGATGAATTTCTGGAGTCGAGTAAACAAATTTTCCTAATCTTTCTGTTCAAGCGCCATCTAC,0.846 RPM ratio (pull-down/input)
15,GATGATTGTTCTCCCAGCTGATGAATTACGTTTGTCGAGTAAACAAATTTTCCTAATCTTTCTGTTCAAGCGCCATCTAC,1.19 RPM ratio (pull-down/input)
16,GATGATTGTTCTCCCAGCTGATGAATTTATATCTTCGAGTAAACAAATTTTCCTAATCTTTCTGTTCAAGCGCCATCTAC,1.12 RPM ratio (pull-down/input)
17,GATGATTGTTCTCCCAGCTGATGAATTTCTCGGATCGAGTAAACAAATTTTCCTAATCTTTCTGTTCAAGCGCCATCTAC,0.846 RPM ratio (pull-down/input)
18,GATGATTGTTCTCCCAGCTGATGAATTTAATTGCTCGAGTAAACAAATTTTCCTAATCTTTCTGTTCAAGCGCCATCTAC,1.22 RPM ratio (pull-down/input)
19,GATGATTGTTCTCCCAGCTGATGAATTACTCTCTTCGAGTAAACAAATTTTCCTAATCTTTCTGTTCAAGCGCCATCTAC,1.02 RPM ratio (pull-down/input)
20,GATGATTGTTCTCCCAGCTGATGAATTCGACTTGTCGAGTAAACAAATTTTCCTAATCTTTCTGTTCAAGCGCCATCTAC,0.829 RPM ratio (pull-down/input)
21,GATGATTGTTCTCCCAGCTGATGAATTGCTCGCCTCGAGTAAACAAATTTTCCTAATCTTTCTGTTCAAGCGCCATCTAC,1.05 RPM ratio (pull-down/input)
